US4514573A, “Isoprenylamine derivatives” (priority 1981, dated 1985)

Tested on: influenza virus (PR-8)
Experiment: animal or person
Details: unidentified influenza virus, in Mus musculus, ip, 504 h, read-out: Prevention from influenza infection (Survival rate %)

SMILES	responders at 50 mg/kg
COc1ccc(CNCC=C(C)CCC=C(C)CCC=C(C)CCC=C(C)CCC=C(C)CCC=C(C)CCC=C(C)CCC=C(C)CCC=C(C)CCC=C(C)C)cc1 [drawing 54]	10%
CC(C)=CCCC(C)=CCCC(C)=CCCC(C)=CCCC(C)=CCCC(C)=CCCC(C)=CCCC(C)=CCCC(C)=CCCC(C)=CCNCc1cccc(CN)c1 [drawing 56]	60%
COc1ccc(CNCC=C(C)CCC=C(C)CCC=C(C)CCC=C(C)CCC=C(C)CCC=C(C)CCC=C(C)CCC=C(C)CCC=C(C)C)cc1OC [drawing 55]	70%
COc1ccc(CNCC=C(C)CCC=C(C)CCC=C(C)CCC=C(C)CCC=C(C)CCC=C(C)CCC=C(C)CCC=C(C)CCC=C(C)CCC=C(C)C)cc1OC [drawing 50]	70%
CC(C)=CCCC(C)=CCCC(C)=CCCC(C)=CCCC(C)=CCCC(C)=CCCC(C)=CCCC(C)=CCCC(C)=CCCC(C)=CCNCc1ccc(Cl)cc1 [drawing 49]	60%
COc1cccc(CNCC=C(C)CCC=C(C)CCC=C(C)CCC=C(C)CCC=C(C)CCC=C(C)CCC=C(C)CCC=C(C)CCC=C(C)CCC=C(C)C)c1OC [drawing 57]	30%
CC(C)=CCCC(C)=CCCC(C)=CCCC(C)=CCCC(C)=CCCC(C)=CCCC(C)=CCCC(C)=CCCC(C)=CCCC(C)=CCNCc1cccc2ccccc12 [drawing 47]	50%
CC(C)=CCCC(C)=CCCC(C)=CCCC(C)=CCCC(C)=CCCC(C)=CCCC(C)=CCCC(C)=CCCC(C)=CCCC(C)=CCNCc1ccc([N+](=O)[O-])cc1 [drawing 46]	40%
CC(C)=CCCC(C)=CCCC(C)=CCCC(C)=CCCC(C)=CCCC(C)=CCCC(C)=CCCC(C)=CCCC(C)=CCCC(C)=CCNCCc1ccc(N)cc1 [drawing 51]	30%
COc1cc(CNCC=C(C)CCC=C(C)CCC=C(C)CCC=C(C)CCC=C(C)CCC=C(C)CCC=C(C)CCC=C(C)CCC=C(C)CCC=C(C)C)ccc1O [drawing 53]	60%
CC(C)=CCCC(C)=CCCC(C)=CCCC(C)=CCCC(C)=CCCC(C)=CCCC(C)=CCCC(C)=CCCC(C)=CCCC(C)=CCNc1ccc(C(=O)O)c(O)c1 [drawing 45]	50%
CC(C)=CCCC(C)=CCCC(C)=CCCC(C)=CCCC(C)=CCCC(C)=CCCC(C)=CCCC(C)=CCCC(C)=CCCC(C)=CCNCc1ccc(C)cc1 [drawing 48]	55%
COc1ccc(CCNCC=C(C)CCC=C(C)CCC=C(C)CCC=C(C)CCC=C(C)CCC=C(C)CCC=C(C)CCC=C(C)CCC=C(C)CCC=C(C)C)cc1OC [drawing 52]	30%
